# Reference: the RNAGym collection of RNA variant scans (doi:10.1093/nar/gkz1192)
# The source gives no read counts; variants with many changes may rest on few reads.
# B1: CPEB3 Ribozyme (parent)
# chain: UAACAGGGGGCCACAGCAGAAGCGUUCACGUCGCAGCCCCUGUCAGAUUCUGGUGAAUCUGCGAAUUCUGCUGUAUAUCUC
# Variants of: B1
# Test: self-cleavage, relative activity (ratio to wild type); higher = more cleavage; in vitro, sequencing
# Method in brief: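 CPEB3 self-cleaving ribozyme mutant libraries were made by rounds of error-prone PCR, barcoded, and transcribed in vitro with T7 RNA polymerase for 5 hours at 37°C. Cleavage occurred during transcription and a 15 min DNase I step before EDTA stop. RNAs were reverse transcribed with template switching and Illumina-sequenced, with DNA sequencing mapping barcodes to variants. Relative activity is the variant's cleaved/total read fraction divided by wild type's (minimum 5 reads), averaged across three batches.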
row,Variant,self-cleavage
1,A56G A65G U72A,0.3
2,A56G U69A U72A C79G,0.41
3,C62U A65G U69C,0.3
4,A56U C62U U76A,0.27
5,C62U A64U U69C,0.31
6,A56U C62U C71U A77U U78C,0.19
7,A56G A65U U72G,0.22
8,U60C A65G U67C,0.21
9,A57G U69C U72A U80C,0.55
10,U58C G61A U67A C68A,0.23
11,A56U A64U C68U,0.35
12,A57G U66C G70U,0.17
13,A56G C59U U67C U72A U78C,0.23
14,A56U A57G U72C,0.43
15,A57G U69C U72C U78A,0.33
16,A56G U58C U80G,0.58
17,U58C U60A A77G U80C,0.18
18,A56U U74A U80C,0.49
19,G63U A65U U69C,0.29
20,A57C U74A U78C,0.85
21,A56G A65C G70A,0.19
22,A57G U58C U69A U72C U78C,0.23
23,U60C A64U U67C U69C,0.54
24,U60C A64G U74C A77G,0.71

row,Variant,self-cleavage
1,U58A U74A A77U U78A,0.96
2,A57G A64U U67C A75U U80C,0.18
3,U58C U60A U69C C71U,0.48
4,A56G A64U U66C,0.21
5,A57G U66C A75U,0.3
6,U58A C59U U72C,0.31
7,U60A U66C U80A,0.32
8,U60A U72G U78C,0.71
9,G63A A64C A77U,0.16
10,A56G G70A U78C,0.58
11,A64C C71G U78C,0.29
12,G63C U69A U74A,0.71
13,U60A A64G U80C,0.4
14,A56G A64G U69C,0.4
15,U60A A64G U69A,0.23
16,U60A A64G U69C,0.36
17,U60C U69A A77U,0.41
18,U60C A65G U78C U80C,0.18
19,A56G U66G U74C A75G,0.56
20,A56G C59A G61A,0.19
21,C59U U67C A77G U80A,0.19
22,U58C C62U U67A C71U,0.27
23,U60G A64G U72C,0.21
24,G63A U69A U78C,0.58

row,Variant,self-cleavage
1,A57G U74G A75G,1.13
2,A64G A65G U78C,0.18
3,A57G U60A U67G A77G U80C,0.31
4,A56G U69C U72A,0.31
5,U60C A65G U66C U69A,0.15
6,A57G U69C A75U,0.45
7,U58C U72A A77G,0.5
8,A56G A57G A75G U78C,0.45
9,A56G U60A U76C,0.48
10,A57G U67C U80C,0.34
11,A57G G61A U78C U80C,0.22
12,U60C A65G U72A A75G,0.18
13,A57G A75U U78C,1.07
14,A56G A57G A65G,0.18
15,U60C A64G U67A,0.36
16,A56G A57G A64U U69C,0.16
17,U60A U69C U72C,0.27
18,U60A U69C U72G,0.32
19,A57G U58C U60C,0.17
20,U60A U69A U78A,0.28
21,A56G U66C U67C G70A U72A,0.36
22,A57G G63A U76C,0.94
23,A56G U60A G61C,0.21
24,A56G A57G U72C,0.25

row,Variant,self-cleavage
1,A56U U67C C68A,0.29
2,U60A A65C U72A,0.25
3,G63U A64G U80C,0.93
4,A56U A57U U74C,1.17
5,A64C U69C G70U,0.37
6,A57G U60A A64G,0.21
7,C59G U60C U66C U72A,0.14
8,U58G U60C U67C,0.18
9,A57G A64G U76C,1.07
10,A57U C62U A64G U67C U80C,0.14
11,G63U U66C U80C,0.49
12,A57G U69G U72A,0.46
13,U60C U66A U72C,0.18
14,A56G U67A A75G,0.24
15,A57G C62G U67A C79U,0.2
16,C62G A64G U67G,0.21
17,A56G A57G A65G U78C,0.16
18,A57G U60A C81U,0.42
19,A57G U67A C71U,0.35
20,G63C A64G U67C U69C U78A,0.13
21,A56G A57G U60A A64G U78C,0.26
22,U58C A64G U66C U74C,0.28
23,U58C U60A A77G,0.41
24,A57C U69C U78C,0.17

row,Variant,self-cleavage
1,A56U A57G U60C A65G,0.14
2,A64C U72A U78C,0.27
3,A56U A65G U66C A75U,0.11
4,U60C C62G C68G,0.37
5,A56C U58C U76C,0.18
6,A56U U60C U66A U76C,0.22
7,A57G U58G U69A,0.14
8,A57C A64U U76C,0.13
9,U60C U67A A75U,0.29
10,A57G U60C G61A,0.39
11,U58A U67C C71U,0.21
12,A56G A57G U60G U69G,0.2
13,A56U U69G A75U,0.5
14,U58C A65G U69A,0.35
15,U60A G63U A65G U78C,0.29
16,U60A C71U U78C,0.38
17,U58A A65G U72C,0.4
18,A57G A75G U80A,0.95
19,U60A G63A U67C U69C,0.36
20,A56G U72C U78C,0.93
21,U58G U78C U80C,0.1
22,G61C A64G U80A,0.21
23,C62A G73A U74A,0.25
24,U60C G61A C71A,0.14

row,Variant,self-cleavage
1,A57G A65G C79A,0.22
2,A56G U76G U78C,0.58
3,A56U C62U U67A,0.44
4,A57G U60C U69C,0.19
5,U58C U66C A75G,0.17
6,U58C U60C U67A U69A,0.2
7,C62U U69C U72A,0.23
8,A57G U72C C81U,1.25
9,A57G U58C U78G,0.43
10,A56G U74A A75G,0.83
11,A56G U60C A75G,0.4
12,A56U G63U A75G,0.93
13,A57G U72C U80A,0.43
14,A57G U72C U80C,1.25
15,A56G U58A A64G G73A A77G,0.27
16,A56G U60C U72A U76A,0.41
17,C62U U67A U76C,0.25
18,A64G A65G U66C,0.2
19,A64G A65G U66A,0.2
20,U58C C62G U80A,0.11
21,U58A U66A U67A A77G,0.11
22,A57G U58A A75G,0.39
23,U60C U69C C79U,0.37
24,A56G A57G U58C,0.13

row,Variant,self-cleavage
1,A57G A64U U72C,0.54
2,U60C A65G U66G U74C,0.41
3,A56G U58G U72C,0.12
4,A57G A64G U66A U69A,0.26
5,A57C A64G U66C,0.11
6,U60A C62G A64U,0.26
7,C62G U74C U78C,0.21
8,A64G A75G C79A,1.01
9,A56U C62A G73A U78C,0.21
10,A56G U69A U72A,0.22
11,A57G A77G U78C,1
12,A56G U72C A75U U80G,1.44
13,A56U U67A U69A,0.22
14,A56C A64U U78C,0.29
15,U58C U69A U72C,0.21
16,A56G A64G U78C,0.59
17,G55U U60A A77U U78C,0.31
18,C59U U60A G61A U67C U78C,0.14
19,U60C U72C U74C,0.46
20,U60C A64G U80C,0.19
21,A56G C62U A64U U69C A75U,0.18
22,U60C U66C U72A,0.29
23,U60A A65G U80C,0.31
